# About 200 (0.47%) of roughly 43,000 compounds were called active. Not shown: some 12% with an inconclusive outcome. The call rests on the fitted dose curve; in most records, active means well fitted cell-killing curve with a large enough effect; inconclusive means small, poorly fitted or top-dose-only effect, or effect the other way; inactive means flat fitted curve, though single readings scatter. This is one part of the list.
# Assay: Cell viability qHTS assay in S16 Pmp22-F2sN cells; further: nearly all actives have a fitted effect of over 65% in size
# Settings: S16 Pmp22-F2sN Schwann cells (luciferase reporters placed in the Pmp22 gene) viability, CellTiter-Glo, 24 h; series mostly up to 57.5 µM; activity change, negative = cytotoxicity: at the top concentration
# In short: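 Seed 500-1,000 S16 Pmp22-F2sN cells per well in phenol-red-free DMEM with 10% heat-inactivated FBS; pin-add 23 nL compound; incubate 24 h at 37C; add CellTiter-Glo, wait 15 min protected from light; read luminescence.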
# On the % scale 0 is the no-effect control and ±100 the full control effect.
row,Structure (SMILES),"activity change, negative = cytotoxicity"
1,CC1CCc2c(sc(NC(=O)COc3ccccc3C(C)(C)C)c2C#N)C1 (stereo not given),inactive: -0.89%
2,O=C(CSc1nc2c([nH]c3ccccc32)c(=O)n1-c1ccccc1)N1CCCCCC1,inactive: 13.2%
3,Cc1cccc(-n2ccnc2SCC(=O)Nc2ccc3c(c2)OCO3)c1,inactive: -1.54%
4,O=C(Nc1cccc(F)c1)C1CCN(c2nc3ccccc3[nH]2)CC1,inactive: 14.4%
5,CCc1cccc(NC(=O)CCS(=O)(=O)c2ccc3nc(C)sc3c2)c1,inactive: -10.8%
6,CCc1ccc(-n2nc(C)c3c(C)cc(=O)n(CC(=O)Nc4ccccc4C(=O)OC)c32)cc1,inactive: 3.38%
7,CCCCOc1ccc(C(=O)N/C(=C\c2ccc(Br)cc2)C(=O)NC2CCCCC2)cc1,inactive: -3.21%
8,CSCCC(NS(=O)(=O)c1ccc2c(c1)oc(=O)n2C)C(=O)N1CCN(c2ccc(F)cc2)CC1 (stereo not given),inactive: -0.36%
9,Cc1c(Cl)cccc1NC(=O)Cn1cc2c(n1)CCCC2,inactive: 1.08%
10,Cc1oc2c(c(C)cc3oc(=O)c(CC(=O)NCc4ccccc4)c(C)c32)c1C,inactive: 11.8%
11,CCOC(=O)c1cc(-c2ccccc2)n(-c2cccc(C(=O)Nc3cccc(C(C)=O)c3)c2)c1C,inactive: -1.87%
12,COc1cccc(N2CCN(C(=O)CN3C(=O)COc4ccc(S(=O)(=O)N5CCC(C)CC5)cc43)CC2)c1,inactive: 18.7%
13,COc1ccc(C(=O)NCC(c2cccnc2)N2CCc3ccccc32)cc1OC (stereo not given),inactive: -26.6%
14,CCCCN(CCCNC(=O)c1c(C)oc2nc[nH]c(=O)c12)Cc1ccccc1,inactive: 16.2%
15,Cc1ccc(NC(=O)Cn2cc(S(=O)(=O)N3CCC(C)CC3)c3ccccc3c2=O)c(Br)c1,inactive: 0.917%
16,COc1ccc(-c2nnc(SCC(=O)N(C)Cc3ccccc3)o2)cc1OC,inactive: 18.4%
17,CNC(=O)c1c(NC(=O)c2ccc(S(=O)(=O)N3CCCCC3C)cc2)sc2c1CCC2 (stereo not given),inactive: -9.11%
18,Cc1ccc(Nc2c(-c3cccnc3)nc3ccc(Br)cn23)cc1,inactive: 29.9%
19,Cc1ccc(CNC(=O)Cn2c(=O)n(Cc3ccc(F)cc3)c(=O)c3sc4ccccc4c32)cc1,inactive: 1.53%
20,CCOC(=O)c1cccc2c1N[C@@H](c1ccc(F)cc1)[C@H]1CC=C[C@@H]21,inactive: -3.36%

row,Structure (SMILES),"activity change, negative = cytotoxicity"
1,Cc1ccc(CCNC(=O)c2ccc3c(=O)n(-c4ccccc4)c(=O)[nH]c3c2)cc1,inactive: 3.14%
2,Cn1cc(S(=O)(=O)N2CCCCC2)cc1C(=O)Nc1cccc(C#N)c1,inactive: -0.972%
3,CCCN(C(=O)Cn1ncc2c([nH]c3ccc(C)cc32)c1=O)c1ccccc1C,inactive: -1.86%
4,COc1cccc(N2CC(NC(=O)/C=C\c3ccc(OC)c(OC)c3)CC2=O)c1 (stereo not given),inactive: 3.46%
5,CCC(C)NC(=O)CN1C(=O)COc2ccc(S(=O)(=O)N3CCOCC3)cc21 (stereo not given),inactive: 0.267%
6,CCOc1ccccc1NC(=O)c1c(NCc2sccc2C)sc2c1CCC(C)C2 (stereo not given),inactive: 7.16%
7,O=C(Nc1ccc(Cl)cc1)N1CCC(c2ccccc2)C1 (stereo not given),inactive: -16.3%
8,COc1ccc(N2CC(NC(=O)COc3ccc4ccccc4c3)CC2=O)cc1OC (stereo not given),inactive: 5.24%
9,CCN1C(=O)C(Cc2nc3ccccc3c(=O)n2-c2ccc(OC)cc2)c2ccccc21 (stereo not given),inactive: 3.25%
10,COc1ccc(NC(=O)Cn2cc(S(=O)(=O)Cc3ccc(F)cc3)c3ccccc32)cc1OC,inactive: 2.45%
11,CCOC(=O)C1CCC(CN(Cc2cccc(Br)c2)S(=O)(=O)c2ccc(Cl)cc2)CC1 (stereo not given),inactive: -7.45%
12,CCC(C)NC(=O)c1sc2nc(C)c(C(=O)Nc3ccc(C)cc3C)c(-c3ccccc3Cl)c2c1N (stereo not given),inactive: -6.82%
13,CCN(CC)c1ccc(-c2nc(-c3ccco3)no2)cc1[N+](=O)[O-],inactive: 7.35%
14,COc1ccc(NC(=O)c2cnc(N3CCCCC3)c3ccccc23)cc1Cl,inactive: -6.16%
15,CCCCC1CCC(C(=O)N2CC(=O)Nc3ccc(Cl)cc3C2c2ccc(F)cc2)CC1 (stereo not given),inactive: -14.7%
16,Cc1ccc(-n2c(=O)c3c4c(sc3n(CC(=O)Nc3ccccc3C)c2=O)CCCCC4)cc1C,inactive: 0.0532%
17,COc1ccccc1CNc1nccn(-c2ccccc2)c1=O,inactive: 28.1%
18,CCOC(=O)CC(=O)CSc1nc2ccccc2c(=O)n1CCc1ccc(S(N)(=O)=O)cc1,inactive: 8.67%
19,CC(=O)Nc1ccc(NC(=O)CCS(=O)(=O)c2ccc3c(c2)CC(=O)N3C)cc1,inactive: 12.8%
20,COc1ccc(-c2noc(-c3ccc(NCC4CCCO4)c([N+](=O)[O-])c3)n2)cc1OC (stereo not given),inactive: 0.87%

row,Structure (SMILES),"activity change, negative = cytotoxicity"
1,COc1ccccc1Cc1nc2ccccc2nc1SCC(=O)NCc1ccccc1Cl,inactive: -3.27%
2,CN1CCc2nc3sc(C(=O)Nc4ccccc4C(F)(F)F)c(N)c3cc2C1,inactive: -1.87%
3,Cc1ccc2c(=O)c(C(=O)c3cccc(Cl)c3)cn(CC(=O)Nc3ccccc3C(F)(F)F)c2n1,inactive: 7.48%
4,CC1=C(C(=O)OC2CCCCCC2)C(c2cccc(Cl)c2)CC(=O)N1 (stereo not given),inactive: -3.05%
5,COc1ccc2c(CNCc3cccs3)c(C(=O)O)n(Cc3ccccc3F)c2c1,inactive: -18.6%
6,COc1ccc(CC(=O)N2CCc3cc(OC)c(OC)cc3C2COc2ccc(F)cc2)cc1OC (stereo not given),inactive: -19.6%
7,O=C(NCc1ccccc1)c1ccc2oc(=O)n(Cc3ccccc3)c2c1,inactive: -4.05%
8,CCOC(=O)COc1ccc(C)cc1C(=O)c1ccn2nc(-c3ccc(F)cc3)cc2n1,inactive: 24.2%
9,CC1CCN(C(=O)c2cccc(NC(=O)c3nsc4ccccc34)c2)CC1,inactive: -2.25%
10,Cn1c(SCC(=O)Nc2nc3ccccc3s2)ncc(C(=O)Nc2ccc(F)cc2)c1=O,inactive: 4.43%
11,COc1cccc(C(=O)Nc2cccc(C(=O)OCc3cc(=O)n4c(C)csc4n3)c2)c1,inactive: 12.9%
12,Cc1c(C(=O)NC(C)c2ccccc2)sc2nc3n(c(=O)c12)CCCC3 (stereo not given),inactive: 0.491%
13,NS(=O)(=O)c1ccc2nc(NC(=O)COc3ccc(Cl)cc3Cl)sc2c1,inactive: -2.23%
14,COCCNC(=O)c1ccc2c(c1)N=C(C)c1cc(C)ccc1S2,inactive: -1.33%
15,CCOC(=O)Cn1c(=O)n(-c2ccccc2OC)c2nc(-c3ccc(C(C)C)cc3)nc(C(N)=O)c21,inactive: 29.6%
16,CC(C)CC1Nc2ccc(C(=O)NCCCOC(C)C)cc2NC1=O (stereo not given),inactive: 18.8%
17,COc1ccc(C(=O)NCCn2cc(SCC(=O)Nc3ccc4c(c3)OCCO4)c3ccccc32)cc1OC,inactive: -11.2%
18,CCc1nn2c(=O)cc(COC(=O)C(CC)c3ccccc3)nc2s1 (stereo not given),inactive: 2.29%
19,CCOC(=O)c1c(Oc2ccc(C(C)=O)cc2)nnc(-c2ccccc2)c1-c1ccccc1,inactive: -18%
20,COCCCNC(=O)C1CCN(c2cc(C)nc3c(-c4ccc(Cl)cc4)c(C)nn23)CC1,inactive: 4.35%
